Consider 35 compounds from the supplement of paper PMC9446081.

Among all 39,000 compounds or so, about 220 (0.56%) showed activity. The list shows a part of the results.
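Further: static incubation at 37 °C against the wild-type strain, values averaged over two biological replicates.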

This experiment concerns Escherichia coli K-12 BW25113. Kind of experiment: relative growth (OD600 normalised to plate interquartile mean) (fraction); higher = less growth inhibition, active = 0.2 or less. The note with it: 50 µM; LB; incubation time: overnight (16-24 h).
Regarding `Cc1c2oc3c(C)ccc(C(=O)N[C@@H]4C(=O)N[C@@H](C(C)C)C(=O)N5CCC[C@H]5C(=O)N(C)CC(=O)N(C)[C@@H](C(C)C)C(=O)O[C@@H]4C)c3nc-2c(C(=O)N[C@@H]2C(=O)N[C@@H](C(C)C)C(=O)N3CCC[C@H]3C(=O)N(C)CC(=O)N(C)[C@@H](C(C)C)C(=O)O[C@@H]2C)c(N)c1=O`, the relative growth was inactive: 0.954. `NCCCC[C@@H]1NC(=O)[C@@H](Cc2c[nH]c3ccccc23)NC(=O)[C@H](c2ccccc2)NC(=O)[C@@H]2C[C@@H](OC(=O)NCCN)CN2C(=O)[C@H](Cc2ccccc2)NC(=O)[C@H](Cc2ccc(OCc3ccccc3)cc2)NC1=O`: the relative growth was inactive: 0.893.

For the compound `CN1CCN(C)C1=O`, the relative growth was inactive: 1.02. For `COc1ccccc1CNC(=O)C[C@H]1C[C@H]2c3cc(NC(=O)c4cccnc4)ccc3O[C@H]2[C@@H](CO)O1`, the relative growth was inactive: 0.998. To `C[C@@H]1CN([C@H](C)CO)C(=O)c2cc(NC(=O)CCCCCC(=O)Nc3ccccc3N)ccc2O[C@H]1CN(C)S(=O)(=O)c1cn(C)cn1` belongs inactive: 0.998; to `Cc1noc(C)c1S(=O)(=O)Nc1ccc2c(c1)CC(=O)N([C@@H](C)CO)C[C@H](C)[C@@H](CN(C)S(C)(=O)=O)O2`, inactive: 1.01. To `C[C@H](CO)N1C[C@H](C)[C@@H](CN(C)S(=O)(=O)c2ccc(Cl)cc2)Oc2ccc(N(C)C)cc2C1=O` belongs inactive: 1. For `Cc1ccc(S(=O)(=O)N(C)C[C@@H]2Oc3ncc(C#CCC(C)C)cc3C(=O)N([C@H](C)CO)C[C@@H]2C)cc1`, the relative growth is inactive: 0.994. To `O=C(CCc1cn(CC[C@@H]2OC(=O)[C@H](Cc3ccccc3)N3CC4=CC(=O)[C@H](C5CC5)[C@H]4[C@H]23)nn1)NO` belongs inactive: 1.02; to `CC(C)CC#Cc1cnc2c(c1)C(=O)N([C@H](C)CO)C[C@H](C)[C@H](CN(C)S(=O)(=O)c1cccs1)O2`, inactive: 1.02; to `COc1ccc(NC(=O)Nc2ccc3c(c2)C(=O)N([C@@H](C)CO)C[C@@H](C)[C@@H](CN(C)Cc2ccc(C(=O)O)cc2)OCCCC[C@H](C)O3)cc1`, inactive: 1.01. To `C[C@@H]1CCCCO[C@@H](CN(C)Cc2ccc3c(c2)OCO3)[C@H](C)CN([C@@H](C)CO)C(=O)c2cc(NS(=O)(=O)c3cccs3)ccc2O1` belongs inactive: 0.999. To `COc1ccc(CN(C)C[C@H]2Oc3c(NC(=O)c4ccc(-c5nccs5)cc4)cccc3C(=O)N([C@H](C)CO)C[C@H]2C)cc1` belongs inactive: 0.939; to `COc1cc(C(=O)N2CCOCC2)cc(OC)c1OC`, inactive: 1.09. On to `COc1ccc(CN2C[C@@H](C)[C@H](OC)CN(C)C(=O)c3cc(NC(=O)c4nc5ccccc5s4)ccc3OC[C@H]2C)cc1`, for which the relative growth was inactive: 1.04. On to `C[C@H](CO)N1C[C@H](C)[C@@H](CN(C)CC2CCCCC2)Oc2c(NC(=O)Nc3ccc(F)cc3)cccc2C1=O`, for which the relative growth was inactive: 0.933. As to `C[C@@H]1CN([C@H](C)CO)C(=O)Cc2cc(NC(=O)c3ccncc3)ccc2O[C@@H]1CN(C)Cc1ccc(-c2ccccc2)cc1`, the relative growth was inactive: 1.01. As to `C[C@@H]1CN([C@@H](C)CO)C(=O)c2cccc(NC(=O)c3ccc(-c4nccs4)cc3)c2O[C@H]1CN(C)CC1CCCCC1`, the relative growth was inactive: 0.932.

For the compound `COc1ccc(S(=O)(=O)Nc2ccc3c(c2)C(=O)N([C@@H](C)CO)C[C@H](C)[C@H](CN(C)CC2CCCCC2)OCCCC[C@H](C)O3)cc1`, the relative growth is inactive: 0.967. To `C[C@H]1CN([C@@H](C)CO)C(=O)c2cccc(NC(=O)Nc3cccc4ccccc34)c2O[C@H]1CN(C)Cc1ccc2c(c1)OCO2` belongs inactive: 0.994; to `O=C(C[C@H]1C=C[C@H](NS(=O)(=O)c2ccc(F)cc2)[C@H](CO)O1)NCc1ccc(Cl)c(Cl)c1`, inactive: 0.997. To `O=C(C[C@@H]1CC[C@H]2[C@@H](COC[C@H](O)CN2C(=O)Nc2cccc(F)c2)O1)NCCCN1CCOCC1` belongs inactive: 1; to `COCC(=O)Nc1ccc2c(c1)OC[C@@H](C)N(C(=O)CN1CCOCC1)C[C@@H](C)[C@H](OC)CN(C)C2=O`, inactive: 1.01.

As to `C[C@@H]1CN([C@@H](C)CO)C(=O)c2c(c3ccccc3n2C)-c2ccccc2CO[C@@H]1CN(C)C(=O)N[C@H](C)c1ccccc1`, the relative growth was inactive: 0.985. `C[C@@H]1CN([C@H](C)CO)C(=O)c2cccc(NC(=O)c3nc4ccccc4s3)c2O[C@H]1CN(C)Cc1ccc(Oc2ccccc2)cc1`: the relative growth is inactive: 0.999. As to `CO[C@H]1O[C@H]2CO[C@H]([C@@H]1O)[C@@H]2O`, the relative growth is inactive: 0.99.

With `COc1ccc2c3c(n(c2c1)C)[C@H](CO)N(C[C@]13CCN(CC1)C(=O)Nc1ccc(cc1)F)C(=O)c1ccc(cc1)F`, the relative growth was inactive: 0.995. To `COc1cccc(-c2ccc3c(c2)O[C@H](CN(C)C(=O)C2CCOCC2)[C@H](C)CN([C@@H](C)CO)S3(=O)=O)c1` belongs inactive: 1.01; to `C[C@@H]1CCCCO[C@H](CN(C)S(C)(=O)=O)[C@@H](C)CN([C@H](C)CO)C(=O)c2cc(NC(=O)Nc3cccc4ccccc34)ccc2O1`, inactive: 1.01. In the case of `O=C(C[C@@H]1C=C[C@@H](NC(=O)CN2CCOCC2)[C@H](CO)O1)NCCc1ccccc1`, the relative growth was inactive: 1. Consider `C[C@H](CO)N1C[C@H](C)[C@@H](CN(C)S(=O)(=O)c2ccc(Cl)cc2)Oc2c(NC(=O)Nc3ccc(C(F)(F)F)cc3)cccc2C1=O`, for which the relative growth is inactive: 0.798. Regarding `CC(C)N1C[C@@H](C)[C@H](CN(C)S(=O)(=O)c2ccc(F)cc2)OCCCC[C@H](C)Oc2ccc(NC(=O)Nc3ccccc3)cc2C1=O`, the relative growth was inactive: 1.02. On to `C[C@@H]1CN([C@H](C)CO)S(=O)(=O)c2ccc(C#Cc3ccncc3)cc2O[C@H]1CN(C)S(=O)(=O)c1ccccc1`, for which the relative growth is inactive: 0.991.

`C[C@H]1CN([C@@H](C)CO)C(=O)c2cc(NC(=O)C3CC3)ccc2O[C@H]1CN(C)S(=O)(=O)c1ccc(F)cc1`: the relative growth was inactive: 0.989.

On to `COC(=O)c1c2oc(c1C(=O)OC)C(=O)N[C@H](Cc1ccccc1)Cn1cc(nn1)[C@@H](Cc1ccccc1)NC(=O)N[C@H](COC(=O)NCCCCCC(=O)NO)CC2`, for which the relative growth is inactive: 1.04.
